Measurements: PubChem BioAssay AID1454 (National Center for Advancing Translational Sciences (NCATS), 2008)
The campaign covered roughly 130,000 compounds. About 550 (0.42%) were called active. The shares of active, inactive and inconclusive entries below differ from those in the screen. The call rests on the fitted dose curve; in most records, active means well fitted inhibition curve with a large enough effect; inconclusive means small, poorly fitted or top-dose-only effect, or effect the other way; inactive means flat fitted curve, though single readings scatter. No potency is given beside an inconclusive call; the fits are too rough.

experiment: qHTS Assay for Inhibitors of the ERK Signaling Pathway using a Homogeneous Screening Assay; Stimulation with EGF; conditions: HEK293-V1b, EGF-stimulated phospho-ERK AlphaScreen; activity change, negative = inhibition: at the top concentration; further: nearly all actives have a fitted effect of over 55% in size;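 on activity change, negative = inhibition: plate controls were stimulated vehicle wells for no effect and unstimulated vehicle basal for full effect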
Outline: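 In this qHTS, HEK293 cells with stable type-1 vasopressin (V1b) receptor were exposed to compound at 37C for 30 min, stimulated 5 min with EGF at 25 nM, lysed, and probed for phospho-ERK by AlphaScreen.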
Potency means the concentration at half of the fitted maximal effect; tags describe the fitted curve by direction and shape.

Row | Compound | Potency | activity change, negative = inhibition
1 | CN(CCOc1ccccc1)CC(=O)Nc1ccc(Cl)cc1[N+](=O)[O-] | inconclusive [inhibitor, partial curve, poor fit] | 
2 | O=C(c1ccc(CNS(=O)(=O)c2ccccc2)cc1)N1CCN(c2ccccn2)CC1 | inconclusive [inhibitor, single point] | 
3 | COc1ccc(NC(=O)COC(=O)c2cc(OC)c(OC)c(OC)c2)c([N+](=O)[O-])c1 | inconclusive [inhibitor, full curve, poor fit] | 
4 | COc1ccc(NC2=C(Cl)C(=O)N(CCc3ccccc3)C2=O)c(OC)c1 | inconclusive [inhibitor, partial curve] | 
5 | CN(C)c1ccc(CNCCC(Cc2ccccc2)c2ccco2)cc1 (stereo unspecified) | inconclusive [inhibitor, partial curve, poor fit] | 
6 | CN1CCS/C1=C/C=C1/SC(=S)N(Cc2ccccc2)C1=O | inconclusive [inhibitor, single point] | 
7 | COC(=O)c1cc(C(=O)OC)[nH]n1 | inconclusive [inhibitor, single point] | 
8 | CCOc1c(Br)cc(CNc2ccc(N3CCOCC3)cc2)cc1OC | inconclusive [inhibitor, partial curve] | 
9 | COc1ccc(/C=C/CN2CCCC(C(=O)c3cc(F)ccc3F)C2)cc1 (stereo unspecified) | inconclusive [inhibitor, partial curve] | 
10 | CN1CCN(c2nc3cc(C(F)(F)F)ccc3n3cccc23)CC1 | inconclusive [inhibitor, single point] | 
11 | Cc1ccc(OC(C)C(=O)N=Nc2c(O)[nH]c3ccc([N+](=O)[O-])cc23)cc1 (stereo unspecified) | inconclusive [inhibitor, single point] | 
12 | COc1ccc(CCC(C)Nc2ccc(F)cc2)cc1 (stereo unspecified) | inconclusive [inhibitor, single point] | 
13 | COC(=O)c1ccc(C2N=C(c3cccs3)CC(c3ccccc3O)N2)cc1 (stereo unspecified) |  | inactive: -9.51%
14 | O=C(COC(=O)c1cccc(O)c1)Nc1ccc(OC(F)F)cc1 | inconclusive [inhibitor, single point] | 
15 | CC1=C(C(=O)O)N2C(=O)[C@@H](NC(=O)[C@@H](N)c3ccc(O)cc3)[C@@H]2SC1 |  | inactive: 11.9% [at 25.7 µM]
16 | CC(=O)c1c(C)nn(CC(O)COc2ccc3ccccc3c2)c1C (stereo unspecified) | inconclusive [inhibitor, single point] | 
17 | Cc1cccc(CNc2cc(-c3cccnc3)ncn2)c1 |  | inactive: 15.5%
18 | CN1CCCc2cc(C=O)ccc21 |  | inactive: 2.29%
19 | O=C(/C=C/c1cccc([N+](=O)[O-])c1)c1ccccc1 |  | inactive: -8.46%
20 | O=C(/C=C/c1cccc2ccccc12)c1ccncc1 | inconclusive [inhibitor, single point] | 
21 | O=C(COC(=O)c1n[nH]c2ccccc12)Nc1ccc(Cl)cc1[N+](=O)[O-] | inconclusive [inhibitor, partial curve] | 

Row | Compound | Potency | activity change, negative = inhibition
22 | CC(C)Cn1c(O)c(N=NC(=O)c2cccc(S(=O)(=O)N3CCCCC3)c2)c2ccccc21 | inconclusive [inhibitor, partial curve] | 
23 | O=C(NCCn1cc(SCc2ccccc2)c2ccccc21)c1c(F)cccc1F | inconclusive [inhibitor, partial curve] | 
24 | CCC1=NN2C(=N)/C(=C\c3cccn3-c3ccc(Cl)cc3)C(=O)N=C2S1 |  | inactive: -4.1%
25 | Cc1cc(/C=C/c2ccc3cc(N(C)C)ccc3[n+]2C)c(C)n1-c1ccccc1 | inconclusive [inhibitor, partial curve, poor fit] | 
26 | O=C(Nc1ccc(-c2cn3ccccc3n2)cc1)c1ccco1 |  | inactive: -7.48%
27 | COc1ccccc1Nc1c([N+](=O)[O-])cncc1[N+](=O)[O-] | inconclusive [inhibitor, partial curve, poor fit] | 
28 | C/C(=N\NC(=S)Nc1ccc(F)cc1)c1ccc2c(c1)OCCO2 | inconclusive [inhibitor, partial curve] | 
29 | O=C(Nc1ccccc1)c1sccc1Oc1ccc([N+](=O)[O-])cc1F | inconclusive [inhibitor, single point] | 
30 | COc1ccc(CC(=O)Nc2cccc(-c3nnc(-c4ccc(C)cc4)o3)c2)cc1OC | inconclusive [inhibitor, partial curve] | 
31 | O=C(O)CCCCCN1C(=O)/C(=C\c2cn(-c3ccccc3)nc2-c2cccs2)SC1=S | inconclusive [inhibitor, single point] | 
32 | CCN1CCCc2cc(CN(CCN3CCOCC3)C(=S)Nc3cccc(OC)c3)ccc21 | inconclusive [inhibitor, single point] | 
33 | Fc1ccc(/C=N/Nc2ccccn2)cc1 | inconclusive [inhibitor, single point] | 
34 | CC1(C)O[C@@H]2C[C@H]3[C@@H]4CCC5=CC(=O)C=C[C@]5(C)[C@@]4(F)[C@@H](O)C[C@]3(C)[C@]2(C(=O)CO)O1 |  | inactive: 1.96% [at 57.5 µM]
35 | O=c1/c(=C\c2cc([N+](=O)[O-])cc([N+](=O)[O-])c2O)sc2nc3ccccc3n12 | inconclusive [inhibitor, single point] | 
36 | Cc1[nH]n(-c2nc(-c3ccc(Cl)cc3)cs2)c(=O)c1N=Nc1ccc(O)cc1 | inconclusive [inhibitor, partial curve] | 
37 | COc1ccc(/C=C\c2nc(=O)c3ccccc3o2)cc1 | inconclusive [inhibitor, full curve, poor fit] | 
38 | CC1CC2C3CC(F)C4=CC(=O)C=C[C@@]4(C)[C@@]3(F)C(O)C[C@]2(C)[C@]1(O)C(=O)COC(=O)C(C)(C)C (stereo partly specified) |  | inactive: 12.5%
39 | CCOc1ncccc1C(=O)Nc1cccc(-c2nc3cccnc3s2)c1 | inconclusive [inhibitor, full curve, poor fit] | 
40 | COc1ccccc1C(=O)NCC(=O)N/N=C/c1cc(Br)ccc1OC(=O)/C=C\c1ccco1 |  | inactive: 3.3%
41 | COCCn1c(=O)c(-c2cccs2)nc2cnc(Oc3cccc(Cl)c3)nc21 | inconclusive [activator, single point] | 
